Structures are written as SMILES. About 14,000 (4.5%) of roughly 310,000 compounds showed an effect of 50% or more. Effects have a minus sign here. The list shows a part of the results.
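Note: peak tail current of the secondary pulse compared with the same well before compound.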

The test deals with human ether-à-go-go-related gene (hERG) potassium channel (human, UniProt Q12809). Description: primary screen, population patch clamp on CHO cells stably expressing hERG.
Chain of human ether-à-go-go-related gene (hERG) potassium channel (Q12809 whole entry, looked up): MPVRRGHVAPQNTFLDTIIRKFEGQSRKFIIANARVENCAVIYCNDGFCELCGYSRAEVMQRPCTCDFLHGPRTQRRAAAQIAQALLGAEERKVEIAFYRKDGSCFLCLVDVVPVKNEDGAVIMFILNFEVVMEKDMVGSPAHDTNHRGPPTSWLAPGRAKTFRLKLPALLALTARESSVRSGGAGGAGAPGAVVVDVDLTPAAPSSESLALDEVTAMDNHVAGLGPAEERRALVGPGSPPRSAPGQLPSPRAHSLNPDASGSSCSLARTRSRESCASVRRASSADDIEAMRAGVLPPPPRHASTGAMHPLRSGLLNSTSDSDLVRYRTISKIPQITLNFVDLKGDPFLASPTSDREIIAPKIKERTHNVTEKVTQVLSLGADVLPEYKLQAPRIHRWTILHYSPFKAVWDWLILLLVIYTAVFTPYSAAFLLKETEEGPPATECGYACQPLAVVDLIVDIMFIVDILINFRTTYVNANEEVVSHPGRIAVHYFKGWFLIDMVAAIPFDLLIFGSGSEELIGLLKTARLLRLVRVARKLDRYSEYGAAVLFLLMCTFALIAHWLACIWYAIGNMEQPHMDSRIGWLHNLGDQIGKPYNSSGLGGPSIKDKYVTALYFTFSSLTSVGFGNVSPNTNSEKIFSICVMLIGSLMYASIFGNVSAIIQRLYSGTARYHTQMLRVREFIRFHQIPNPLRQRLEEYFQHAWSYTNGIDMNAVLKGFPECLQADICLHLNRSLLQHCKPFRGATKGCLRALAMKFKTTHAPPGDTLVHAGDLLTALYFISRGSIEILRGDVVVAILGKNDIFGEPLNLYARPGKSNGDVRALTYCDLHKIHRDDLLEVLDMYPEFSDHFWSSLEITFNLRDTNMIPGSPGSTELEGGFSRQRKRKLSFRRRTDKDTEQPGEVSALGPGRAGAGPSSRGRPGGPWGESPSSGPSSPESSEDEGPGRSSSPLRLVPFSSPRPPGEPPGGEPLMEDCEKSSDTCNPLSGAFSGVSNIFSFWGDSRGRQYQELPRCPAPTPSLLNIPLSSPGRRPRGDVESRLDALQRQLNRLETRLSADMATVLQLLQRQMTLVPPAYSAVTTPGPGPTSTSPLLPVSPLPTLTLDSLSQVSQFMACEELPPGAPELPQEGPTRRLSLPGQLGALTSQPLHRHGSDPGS
For `Cc1ccc(NC(=O)CSc2nc3ccccc3c3nc(CCc4c(C)n[nH]c4C)nn23)cc1F`, the “hERG current change (%, negative = inhibition) at 10uM” value is reported as -11.7%.

For the compound `CCOc1ccc2nc(N3CCCC(C(=O)NCCCN4CCOCC4)C3)sc2c1` (centres unmarked), the “hERG current change (%, negative = inhibition) at 10uM” value is -19.6%.

Regarding `CCN(CCO)C(=S)Nc1cc(C(=O)OC)ccc1C(=O)OC`, the “hERG current change (%, negative = inhibition) at 10uM” value is on record as -18.2%.

As for `COc1ccc(NS(=O)(=O)c2cccc(C(=O)NCC3(N4CCCCC4)CCCCC3)c2)cc1`, the “hERG current change (%, negative = inhibition) at 10uM” value is -55.4%.

Turning to `CCCC(=O)NCCc1nc2ccccc2n1C`, the “hERG current change (%, negative = inhibition) at 10uM” value came to 17.4%.

In the case of `CC(C)n1ncc2c(C(=O)N3CCN(c4ccccc4)CC3)cc(-c3ccccc3)nc21`, the “hERG current change (%, negative = inhibition) at 10uM” value was 17.2%.

As to `CCn1c(=O)cc(OCC(=O)NCc2cccs2)c2ccccc21`, the “hERG current change (%, negative = inhibition) at 10uM” value is reported as -8.89%.

Consider `CCCOc1ccc(C2c3c(oc4cc(C)c(C)cc4c3=O)C(=O)N2CCCN(C)C)cc1` (centres unmarked), for which the “hERG current change (%, negative = inhibition) at 10uM” value is given as -8.22%.

Turning to `Cn1cc(/C=C(\NC(=O)c2ccccc2Cl)C(=O)NCCCN2CCOCC2)c2ccccc21`, the “hERG current change (%, negative = inhibition) at 10uM” value is given as 11%.

For the compound `CNc1c(N=Cc2cccnc2)c(=O)n(C)c(=O)n1C`, the “hERG current change (%, negative = inhibition) at 10uM” value turned out to be 11.9%.

Turning to `CS(=O)(=O)N1CCC(C(=O)NCCC2=CCCCC2)CC1`, the “hERG current change (%, negative = inhibition) at 10uM” value is recorded as -4.99%.

For `Cc1[nH]c2ccccc2c1C(=O)C(C)OC(=O)c1ccc(NC(=O)CC#N)cc1` (centres unmarked), the “hERG current change (%, negative = inhibition) at 10uM” value is recorded as -4.77%.

As to `CC(C)CNC(=O)c1c(N)n(/N=C/c2ccccn2)c2nc3ccccc3nc12`, the “hERG current change (%, negative = inhibition) at 10uM” value was 16.3%.

Regarding `CCCN(C(=O)CSc1nnc(-c2ccoc2C)n1N)C1CCS(=O)(=O)C1` (centres unmarked), the “hERG current change (%, negative = inhibition) at 10uM” value came to 5.3%.

Turning to `O=C1CN(c2ccccc2)C(=S)N1C(=O)c1ccccc1`, the “hERG current change (%, negative = inhibition) at 10uM” value came to 12.5%.

For `CCCC1C(=O)N(c2ccccc2)C1c1ccccc1` (centres unmarked), the “hERG current change (%, negative = inhibition) at 10uM” value was 8.03%.

`O=C(CSc1nnnn1-c1cccc2c1CCCC2)N1CCCC1`: the “hERG current change (%, negative = inhibition) at 10uM” value was -28.1%.

Turning to `Cc1ccc(N2C(=O)c3cccc([N+](=O)[O-])c3C2=O)cc1C`, the “hERG current change (%, negative = inhibition) at 10uM” value worked out at 6.63%.

For `CCOCCCNC(=O)/C(C#N)=C/c1cc(OC)c(O)c([N+](=O)[O-])c1`, the “hERG current change (%, negative = inhibition) at 10uM” value was 7.68%.

Take `O=C(CN1C(=O)S/C(=C\c2ccccc2F)C1=O)NCCCn1ccnc1`: the “hERG current change (%, negative = inhibition) at 10uM” value was -9.34%.

Regarding `COc1ccc(NC(=O)c2cc(-c3ccc4c(c3)OCO4)on2)cc1`, the “hERG current change (%, negative = inhibition) at 10uM” value is recorded as -20.3%.

Take `N#CCCN(Cc1ccccc1)C(=O)c1nccnc1C(=O)O`: the “hERG current change (%, negative = inhibition) at 10uM” value is recorded as 21%.

In the case of `COc1ccc(C(O)(C2CCCCC2)C(CN2CCCC2)c2ccccc2)cc1.Cl` (centres unmarked), the “hERG current change (%, negative = inhibition) at 10uM” value is -31.4%.

Regarding `C#CCN1C(=O)C(O)(CC(=O)c2cc(OC)ccc2OC)c2ccccc21` (centres unmarked), the “hERG current change (%, negative = inhibition) at 10uM” value stood at 5.73%.

For the compound `O=C(COc1c(F)c(F)c(C(F)(F)F)c(F)c1F)Nc1ccc(N2CCOCC2)c(Cl)c1`, the “hERG current change (%, negative = inhibition) at 10uM” value is listed as -9.46%.

As for `Cc1ccc(C(=O)Nc2ccc(N3CCOCC3)cc2)cc1S(=O)(=O)N1CCCCC1`, the “hERG current change (%, negative = inhibition) at 10uM” value is reported as -10.1%.

On to `O=C(NCc1ccc(Cl)cc1Cl)C1CCN(S(=O)(=O)c2ccc3c(c2)OCCCO3)CC1`, for which the “hERG current change (%, negative = inhibition) at 10uM” value is given as -7.29%.

For the compound `Cc1ccc2nc(-c3ccc(NS(=O)(=O)c4c(C)n(C)c(=O)n(C)c4=O)cc3)sc2c1`, the “hERG current change (%, negative = inhibition) at 10uM” value is -3.97%.

Turning to `O=C(Cn1c(COc2ccc(Cl)cc2)nc2ccccc21)NCC(F)(F)F`, the “hERG current change (%, negative = inhibition) at 10uM” value is reported as 13.9%.

`O=C1c2ccccc2-c2nc3ccccc3n21`: the “hERG current change (%, negative = inhibition) at 10uM” value is 6.8%.

On to `CCOc1ccc(Br)cc1S(=O)(=O)N1CCCC1`, for which the “hERG current change (%, negative = inhibition) at 10uM” value was -7.56%.

For `O=C(N[C@@H](Cc1ccccc1)C(=O)NC1CCCCC1)c1ccco1`, the “hERG current change (%, negative = inhibition) at 10uM” value turned out to be 6%.

In the case of `Cc1ccc(N=c2c([N+](=O)[O-])nn(-c3ccc4c(c3)OCCO4)n2O)cc1F`, the “hERG current change (%, negative = inhibition) at 10uM” value came to 6.13%.

In the case of `CC(C)CCNC(=O)CN(CCCN1CCOCC1)C(=O)Cn1nnc(-c2ccc(F)cc2)n1`, the “hERG current change (%, negative = inhibition) at 10uM” value is listed as -28%.

As for `COC(=O)/C(=C/c1ccc2c(c1)c1ccccc1n2C)NC(=O)c1ccccc1`, the “hERG current change (%, negative = inhibition) at 10uM” value was 8.1%.

Turning to `CCOc1ccccc1NC(=O)CSc1nnc2ccc(-c3ccncc3)nn12`, the “hERG current change (%, negative = inhibition) at 10uM” value is on record as -54.3%.

With `CC1(C)Cc2c(cnn2-c2ccccc2)C(NC(=O)CCN2CCCC2=O)C1` (centres unmarked), the “hERG current change (%, negative = inhibition) at 10uM” value is reported as 6.21%.

`CC(C)(C)C(=O)NC(=S)Nc1sc2c(c1C#N)CCCCC2`: the “hERG current change (%, negative = inhibition) at 10uM” value was 2.15%.

Take `CCOc1ccc(N(C)S(=O)(=O)c2ccc3[nH]cc(C(=O)NCC(OC)OC)c(=O)c3c2)cc1`: the “hERG current change (%, negative = inhibition) at 10uM” value is 6.94%.

As for `Clc1ccc(-n2cc(-c3ccc(Br)cc3)[n+]3c2CCCCC3)cc1.[Br-]`, the “hERG current change (%, negative = inhibition) at 10uM” value is recorded as -49.4%.

For the compound `CCCCn1c(N)c(N(CCOC)C(=O)c2sc3cc(F)ccc3c2Cl)c(=O)[nH]c1=O`, the “hERG current change (%, negative = inhibition) at 10uM” value is recorded as -14%.

For the compound `O=c1cc(O)c2sc(Nc3ccc(F)c(Cl)c3)nc2[nH]1`, the “hERG current change (%, negative = inhibition) at 10uM” value is on record as 34.2%.

As to `CCOc1cc(NC(=O)c2ccco2)c(OCC)cc1NC(=O)COc1ccccc1`, the “hERG current change (%, negative = inhibition) at 10uM” value is on record as 0.786%.

For the compound `O=C(c1ccccc1)C1Oc2ccccc2C2CC(c3cccs3)=NN12` (centres unmarked), the “hERG current change (%, negative = inhibition) at 10uM” value is on record as -0.576%.

As for `COc1ccc(N2CCN(Cc3cc(=O)oc4cc5c(cc34)CCCC5)CC2)cc1`, the “hERG current change (%, negative = inhibition) at 10uM” value was 6.8%.

Regarding `Cc1c(C(=O)NNC(=S)Nc2cccc(Cl)c2)nnn1-c1ccccc1`, the “hERG current change (%, negative = inhibition) at 10uM” value is listed as -7.53%.

On to `NC(=O)c1nsc(C(=O)N(CCc2ccccc2)C(C(=O)NC2CCCC2)c2ccco2)c1N` (centres unmarked), for which the “hERG current change (%, negative = inhibition) at 10uM” value is -29.3%.

Regarding `Nn1c(COc2ccccc2)nnc1SCc1cc(=O)[nH]c2ccccc12`, the “hERG current change (%, negative = inhibition) at 10uM” value is given as -14.3%.

For `CN(C)CCNC(=O)C(=O)NCC1OCCN1S(=O)(=O)c1ccc2c(c1)OCCO2` (centres unmarked), the “hERG current change (%, negative = inhibition) at 10uM” value turned out to be 12.7%.

Regarding `COc1ccc(NC(=O)c2c3c(nc4ccccc24)CCN(Cc2ccccc2)C3)c(OC)c1`, the “hERG current change (%, negative = inhibition) at 10uM” value is reported as -15.4%.

As for `CC1CCCN(C(=O)c2cn(-c3ccccc3)nc2-c2cccnc2)C1` (centres unmarked), the “hERG current change (%, negative = inhibition) at 10uM” value is reported as -15.7%.

On to `C/C(=N\OC(=O)c1cccc(Cl)c1)c1sc(C)nc1C`, for which the “hERG current change (%, negative = inhibition) at 10uM” value worked out at 11%.

For the compound `Cc1ccc(NC(=O)NCCN2CCN(c3ccccc3)CC2)cc1Cl`, the “hERG current change (%, negative = inhibition) at 10uM” value is on record as 16.7%.

For the origin of these results see publication PMC4336329 (PLoS ONE, 2015).
